The other results are listed elsewhere or left out. At the low end of the ranking the order means little.

This assay deals with SIX1 homeodomain (reference allele) (UniProt Q15475). In words: universal protein binding microarray. The settings on record: Universal all-10-mer PBM (8x60K, AMADID 030236), 300 nM GST-tagged protein, Alexa Fluor 488 anti-GST; buffer, salt, pH and temperature not stated; high values mean tight binding; most listed sequences are background and not binding sites; double strand, one strand shown.
Turning to CGCCGGCG, the binding signal amounted to 0.145 E-score.

As to ACAGACCC, the binding signal was -0.141 E-score. Turning to ATAAGAGG, the binding signal stood at 0.0089 E-score. In the case of AAATATCT, the binding signal turned out to be 0.157 E-score.

For the sequence ACCTCTAT, the binding signal is 0.0242 E-score. The result for AGACCTAA reads -0.198 E-score. As to CACGATGA, the binding signal is -0.0459 E-score. The result for ATTGCATA reads 0.111 E-score. With ACCTTACC the figure was -0.0774 E-score. Turning to CGGCACCG, the binding signal is 0.0338 E-score. On to ATCCATAG, for which the binding signal was 0.193 E-score. As to AAGCTGGG, the binding signal was determined as 0.0352 E-score. Regarding GAGGAGTA, the binding signal was 0.0858 E-score. Turning to CTAACACC, the binding signal was found to be 0.213 E-score. With CACCTTCC, the binding signal came to 0.115 E-score. Take AAGCTAAG: the binding signal was -0.24 E-score.

In the case of ACCAAAAC, the binding signal was -0.0414 E-score. With ACCCTACG the figure was 0.0306 E-score. AATCGTAG: the binding signal is -0.0874 E-score. Consider GGTGTGAA, for which the binding signal came out at 0.135 E-score.

Turning to CAGCGCGA, the binding signal is 0.0341 E-score. As to CGAGGCAA, the binding signal was -0.19 E-score. Turning to GCTTCATA, the binding signal is -0.031 E-score. On to ACTTTTTA, for which the binding signal is -0.208 E-score.

With AGGTCTGC, the binding signal is -0.286 E-score. As to CTGACCCA, the binding signal is -0.112 E-score. Take ATCTGAGG: the binding signal came to 0.261 E-score. For ATTCTTCC, the binding signal was -0.149 E-score.

For the sequence AGCCATAA, the binding signal was -0.1 E-score. AGCTCCCG: the binding signal is -0.103 E-score. On to CAAACATA, for which the binding signal is -0.0705 E-score.

Regarding AGTCGTCG, the binding signal is -0.315 E-score.

As for AAAATATT, the binding signal is 0.0756 E-score. With GGACTAGA the figure was -0.269 E-score; with AATTGAAC, -0.201 E-score. Take CTAGACTC: the binding signal was -0.00854 E-score. Take CCATGACC: the binding signal was -0.158 E-score. In the case of CTTGAAAG, the binding signal was -0.0594 E-score. As for GCTTGATA, the binding signal was 0.351 E-score. Take AATAACGG: the binding signal is -0.133 E-score. Consider TCTTATAA, for which the binding signal is -0.0653 E-score. Take CGTCTCCC: the binding signal worked out at 0.136 E-score. As for AATGCGGT, the binding signal was -0.0549 E-score.

For the sequence ATACAATG, the binding signal was determined as 0.248 E-score. CTTAGGTA: the binding signal stood at 0.0262 E-score. With TCGTTTCA the figure was 0.0294 E-score.

Take CATGGTGC: the binding signal is -0.137 E-score.

In the case of AACGCGCC, the binding signal is -0.105 E-score. In the case of CCAGGACA, the binding signal is 0.0172 E-score. For GTGTGTCA, the binding signal was determined as 0.00739 E-score. On to ACCTAGCA, for which the binding signal stood at 0.0052 E-score. Consider CCCGGCTC, for which the binding signal was found to be 0.0823 E-score. CGCAGGTA: the binding signal is 0.146 E-score. As to AGAGGAAC, the binding signal was -0.183 E-score. Consider AGTCTTCG, for which the binding signal is -0.142 E-score. For the sequence AGCGGGCC, the binding signal was -0.191 E-score. In the case of GCAACTGC, the binding signal was -0.217 E-score. Turning to ATGTCTCC, the binding signal is -0.0122 E-score. Regarding ACTGGCCG, the binding signal is -0.304 E-score. With ACGAAAGT, the binding signal is -0.264 E-score. For CTCGCTGA, the binding signal is -0.0845 E-score. On to GACTAGGC, for which the binding signal was -0.111 E-score. On to GAAATCTA, for which the binding signal is -0.0547 E-score. For GACTGAGA, the binding signal was -0.0604 E-score.

For GCATAGAA, the binding signal was -0.102 E-score. With GTGTCGGA the figure was 0.322 E-score; with ACTCTGCC, -0.221 E-score. In the case of GAACTGTC, the binding signal is -0.121 E-score.

Turning to AGATCTTG, the binding signal was 0.19 E-score. For the sequence ATAACGAA, the binding signal turned out to be 0.0359 E-score.

Turning to AGCATTTA, the binding signal was -0.212 E-score. With CAGCAAAA, the binding signal is -0.155 E-score. As to CGTGGGCA, the binding signal was -0.0797 E-score. Regarding ACTGCTCT, the binding signal was -0.0541 E-score. With ACCTGTCT, the binding signal is 0.0795 E-score. For GAGGACGC, the binding signal is -0.127 E-score. In the case of ATGTGAAG, the binding signal was -0.00791 E-score. With AACCTCCA the figure was -0.207 E-score; with AATGTTAT, -0.085 E-score; with AATCACTC, -0.0897 E-score.

ACAAGTGT: the binding signal was -0.0289 E-score. As to ACCGGTCT, the binding signal was -0.0396 E-score. Take ACAAGTGG: the binding signal is -0.196 E-score. With CAATTTTA the figure was -0.27 E-score; with ATCGAGAG, 0.0886 E-score; with CACCAGTG, 0.0929 E-score.

Regarding ACGGCGGG, the binding signal is 0.149 E-score. Regarding ATTTGTAG, the binding signal is -0.0383 E-score. Take AAAGTGCA: the binding signal was -0.244 E-score. As for ACGCCAGC, the binding signal is -0.183 E-score. With AGGCTGCA the figure was -0.192 E-score; with ACATTTGC, -0.183 E-score; with GCTTTGGA, -0.0772 E-score.

Turning to CATGTGAC, the binding signal is -0.121 E-score. The result for CAAACAAA reads -0.133 E-score; that for TTCAGAAA, -0.254 E-score; that for GTACAGTA, -0.0218 E-score. Consider AGCTCCCC, for which the binding signal was -0.0393 E-score.

Consider CGGGGACA, for which the binding signal was -0.0607 E-score. With CGTCCGTA, the binding signal is -0.154 E-score. For CCCCGGCA, the binding signal came out at 0.0341 E-score. For AGATGGAC, the binding signal is -0.0838 E-score. As for GCCAGCGA, the binding signal was -0.00521 E-score.

In the case of ACGGAATC, the binding signal turned out to be 0.0538 E-score. For the sequence AAGGTAAG, the binding signal was -0.0522 E-score.

Take CATACACC: the binding signal was found to be 0.256 E-score.

As for GATGGGCA, the binding signal was determined as 0.0662 E-score.

In the case of CTTAACTC, the binding signal is -0.208 E-score. Turning to CACGTACA, the binding signal is 0.137 E-score. As to GGCGACCC, the binding signal is -0.0127 E-score. Consider ATCGGAAA, for which the binding signal worked out at 0.159 E-score.

With ACGCGCTC, the binding signal was -0.173 E-score. In the case of TCTCGTAA, the binding signal came to 0.045 E-score. As for CCCCCTAA, the binding signal is -0.0311 E-score.

Consider GTGGATCA, for which the binding signal worked out at 0.4 E-score. For the sequence ACTCAGAA, the binding signal was -0.204 E-score.

With GGCGCGTA, the binding signal is -0.00413 E-score.

On to GGACACTA, for which the binding signal came out at 0.132 E-score.

As to CATCAAGG, the binding signal is -0.085 E-score. In the case of GAGCTTTA, the binding signal was -0.245 E-score.

Turning to CAGCAGCG, the binding signal was -0.213 E-score. Consider ATGAACCC, for which the binding signal came out at 0.103 E-score. With CATAATAG the figure was 0.0415 E-score. As to AGTTGACC, the binding signal was -0.115 E-score. Turning to AGGATGAA, the binding signal was -0.0527 E-score. Regarding AATGGGTA, the binding signal turned out to be 0.125 E-score. AAAGCGAC: the binding signal is -0.185 E-score. On to ATCCTGTG, for which the binding signal was determined as 0.254 E-score.

Consider ATGTTTTA, for which the binding signal was -0.282 E-score. With ATGCGCCG the figure was 0.0222 E-score; with CAAGCACC, -0.0665 E-score; with ATGACGGG, 0.0568 E-score. With CCTAAGTA the figure was -0.0204 E-score. As for AGAATCGA, the binding signal was -0.108 E-score.

Turning to CACCCTAA, the binding signal worked out at 0.132 E-score.

GGCGTCAC: the binding signal is -0.152 E-score. CCGTCATA: the binding signal is 0.0967 E-score. Regarding CGAATCCG, the binding signal worked out at 0.24 E-score. On to CTCAGCTC, for which the binding signal is -0.0319 E-score.

Take CAACGATG: the binding signal is -0.149 E-score.

Consider CTCATTTC, for which the binding signal was -0.111 E-score. For the sequence CGGGCAAG, the binding signal was found to be 0.0528 E-score. The result for AATGCTCA reads -0.164 E-score; that for AGCAGCTC, -0.148 E-score; that for GCCAGACA, 0.0194 E-score.

Turning to AAGACGGA, the binding signal stood at 0.0222 E-score. With AGCCTTCG the figure was -0.0779 E-score; with CCGGACTC, -0.0916 E-score; with GGCTCTCA, -0.0772 E-score. As to ACATACGG, the binding signal turned out to be 0.0406 E-score. Regarding GTGTGGAA, the binding signal was -0.14 E-score. On to TTACGTAA, for which the binding signal was -0.257 E-score. With GACGAATC the figure was -0.018 E-score.

CACGCGCC: the binding signal was -0.00834 E-score. As for ACCCTGCA, the binding signal turned out to be 0.125 E-score. With GGCATCAA the figure was -0.0624 E-score; with ATAAGGAG, 0.0371 E-score. The result for GACGGAGC reads -0.188 E-score; that for CATAGCTA, 0.00991 E-score; that for GCAACAAC, -0.188 E-score. Turning to AACGTGTC, the binding signal was -0.0457 E-score. CCTTGTTA: the binding signal was -0.0485 E-score.

On to AATGCAGG, for which the binding signal was -0.00407 E-score. With GCCTGAAA, the binding signal is -0.149 E-score. CTTTGAAC: the binding signal is -0.0801 E-score. CTGTCTCA: the binding signal stood at 0.129 E-score. Take AAACCCTG: the binding signal stood at 0.068 E-score. AGGTCATG: the binding signal is -0.21 E-score. With TCTCAAAA the figure was 0.0114 E-score; with AGTGCCAG, -0.172 E-score; with ACGAAGAG, 0.0358 E-score. The result for GGTCACTA reads -0.241 E-score.
